# Test results as given in the supplement of paper PMC8728848.
# The list shows a part of the results.
# B1: SP16663B-bot-321-25-321 (Bacteroides ovatus) (protein)
# chain: DDDDEVTMNSKFYLSTKVFPVDSYEASLSVILKDNSVVVNELQPNYRFVACATERLSKDVKITADSDDNLVSAYNKANDTEYNILPAENYSFTNKTVTIENGESVSGDSIKIELLNVGSLTTEGGYLLPVTISSIEGNNLDALSSNRGVVYLKIQNIHVNVESGQPAEGTLIADRSGWTVKVAPTTRGDAKNLIDGTNSDVARDGGAEYWLTVDIGKVQTLTGIRNKCYASSYSPTAVEVFTSSDGAKWKSIGAVTISKSGTQYIKFSKAVETRYLKYYVKQGPNTVSLTEFDLYAK
# Assays:
# Experiment in all cases: glycan array binding signal (z-score within array); higher = stronger binding
# Conditions in all cases: glycan notation: IUPAC condensed, linker removed
# [1] = molecular target: Gal(b1-3)GalNAc(b1-3)Gal(a1-4)Gal(b1-4)Glc
# How it was run: (§1)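 Glycan array binding is given as a within-array Z-score, which can be read as non-binding when negative. The arrays, 3228 of them, came from the Consortium for Functional Glycomics database and were retained only where the protein sequence was available. Z-scores were averaged across arrays of the same protein sequence at different concentrations or buffers and across linkers.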
# [2] = molecular target: Gal(b1-3)GalNAc(b1-4)Gal(b1-4)Glc
# How it was run: as §1
# [3] = molecular target: Gal(b1-3)GalNAc(b1-4)[Neu5Ac(a2-3)]Gal(b1-4)Glc
# How it was run: as §1
# Gal(b1-3)GlcNAc = molecular target: Gal(b1-3)GlcNAc
# How it was run: as §1
# [4] = molecular target: Gal(b1-3)GlcNAc(a1-3)Gal(b1-4)GlcNAc
# How it was run: as §1
# [5] = molecular target: Gal(b1-3)GlcNAc(a1-6)Gal(b1-4)GlcNAc
# How it was run: as §1
# Gal(b1-3)GlcNAc(b1-2)Man = molecular target: Gal(b1-3)GlcNAc(b1-2)Man
# How it was run: as §1
# [6] = molecular target: Gal(b1-3)GlcNAc(b1-2)Man(a1-3)[Gal(b1-3)GlcNAc(b1-2)Man(a1-6)]Man(b1-4)GlcNAc(b1-4)GlcNAc
# How it was run: as §1
# [7] = molecular target: Gal(b1-3)GlcNAc(b1-2)Man(a1-3)[Gal(b1-3)GlcNAc(b1-2)Man(a1-6)]Man(b1-4)GlcNAc(b1-4)[Fuc(a1-6)]GlcNAc
# How it was run: as §1
# [8] = molecular target: Gal(b1-3)GlcNAc(b1-2)Man(a1-3)[GlcNAc(b1-4)][Gal(b1-3)GlcNAc(b1-2)Man(a1-6)]Man(b1-4)GlcNAc(b1-4)GlcNAc
# How it was run: as §1
# [9] = molecular target: Gal(b1-3)GlcNAc(b1-2)[Gal(b1-3)GlcNAc(b1-6)]Man(a1-6)[Gal(b1-3)GlcNAc(b1-2)Man(a1-3)]Man(b1-4)GlcNAc(b1-4)GlcNAc
# How it was run: as §1
# [10] = molecular target: Gal(b1-3)GlcNAc(b1-3)Gal(b1-3)GlcNAc
# How it was run: as §1
# [11] = molecular target: Gal(b1-3)GlcNAc(b1-3)Gal(b1-4)Glc
# How it was run: as §1
# [12] = molecular target: Gal(b1-3)GlcNAc(b1-3)Gal(b1-4)GlcNAc
# How it was run: as §1
# [13] = molecular target: Gal(b1-3)GlcNAc(b1-3)Gal(b1-4)GlcNAc(b1-2)Man(a1-3)[Gal(b1-3)GlcNAc(b1-3)Gal(b1-4)GlcNAc(b1-2)Man(a1-6)]Man(b1-4)GlcNAc(b1-4)GlcNAc
# How it was run: as §1
# [14] = molecular target: Gal(b1-3)GlcNAc(b1-3)Gal(b1-4)GlcNAc(b1-2)[Gal(b1-3)GlcNAc(b1-3)Gal(b1-4)GlcNAc(b1-6)]Man(a1-6)[Gal(b1-3)GlcNAc(b1-3)Gal(b1-4)GlcNAc(b1-2)Man(a1-3)]Man(b1-4)GlcNAc(b1-4)[Fuc(a1-6)]GlcNAc
# How it was run: as §1
# [15] = molecular target: Gal(b1-3)GlcNAc(b1-3)Gal(b1-4)GlcNAc(b1-3)Gal(b1-4)GlcNAc(b1-2)[Gal(b1-3)GlcNAc(b1-3)Gal(b1-4)GlcNAc(b1-3)Gal(b1-4)GlcNAc(b1-6)]Man(a1-6)[Gal(b1-3)GlcNAc(b1-3)Gal(b1-4)GlcNAc(b1-3)Gal(b1-4)GlcNAc(b1-2)Man(a1-3)]Man(b1-4)GlcNAc(b1-4)[Fuc(a1-6)]GlcNAc
# How it was run: as §1
# [16] = molecular target: Gal(b1-3)GlcNAc(b1-3)Gal(b1-4)GlcNAc(b1-6)[Gal(b1-3)GlcNAc(b1-3)]Gal(b1-4)Glc
# How it was run: as §1
# [17] = molecular target: Gal(b1-3)GlcNAc(b1-3)Gal(b1-4)[Fuc(a1-3)]GlcNAc
# How it was run: as §1
# [18] = molecular target: Gal(b1-3)GlcNAc(b1-3)Gal(b1-4)[Fuc(a1-3)]GlcNAc(b1-6)[Gal(b1-3)GlcNAc(b1-3)]Gal(b1-4)Glc
# How it was run: as §1
# [19] = molecular target: Gal(b1-3)GlcNAc(b1-3)GalNAc
# How it was run: as §1
# [20] = molecular target: Gal(b1-3)GlcNAc(b1-6)Gal(b1-4)GlcNAc
# How it was run: as §1
# [21] = molecular target: Gal(b1-3)GlcNAc(b1-6)GalNAc
# How it was run: as §1
# [22] = molecular target: Gal(b1-3)GlcNAc(b1-6)[Gal(b1-3)]GalNAc
# How it was run: as §1
# Gal(b1-3)GlcNAc6S = molecular target: Gal(b1-3)GlcNAc6S
# How it was run: as §1
# [23] = molecular target: Gal(b1-3)[Fuc(a1-4)]GlcNAc
# How it was run: as §1
# [24] = molecular target: Gal(b1-3)[Fuc(a1-4)]GlcNAc(b1-2)Man
# How it was run: as §1
# [25] = molecular target: Gal(b1-3)[Fuc(a1-4)]GlcNAc(b1-2)Man(a1-3)[Gal(b1-3)[Fuc(a1-4)]GlcNAc(b1-2)Man(a1-6)]Man(b1-4)GlcNAc(b1-4)[Fuc(a1-6)]GlcNAc
# How it was run: as §1
# [26] = molecular target: Gal(b1-3)[Fuc(a1-4)]GlcNAc(b1-3)Gal(b1-3)[Fuc(a1-4)]GlcNAc
# How it was run: as §1
# [27] = molecular target: Gal(b1-3)[Fuc(a1-4)]GlcNAc(b1-3)Gal(b1-4)[Fuc(a1-3)]GlcNAc
# How it was run: as §1
# [28] = molecular target: Gal(b1-3)[Fuc(a1-4)]GlcNAc(b1-6)GalNAc
# How it was run: as §1
# [29] = molecular target: Gal(b1-3)[GlcNAc(b1-6)]GalNAc
# How it was run: as §1
# [30] = molecular target: Gal(b1-3)[Neu5Ac(a2-6)]GalNAc
# How it was run: as §1
# [31] = molecular target: Gal(b1-3)[Neu5Ac(a2-6)]GlcNAc(b1-4)Gal(b1-4)Glc
# How it was run: as §1
# [32] = molecular target: Gal(b1-3)[Neu5Ac(b2-6)]GalNAc
# How it was run: as §1
# Gal(b1-4)Gal = molecular target: Gal(b1-4)Gal
# How it was run: as §1
# [33] = molecular target: Gal(b1-4)GalNAc(a1-3)[Fuc(a1-2)]Gal(b1-4)GlcNAc
# How it was run: as §1
# [34] = molecular target: Gal(b1-4)GalNAc(b1-3)[Fuc(a1-2)]Gal(b1-4)GlcNAc
# How it was run: as §1
binder,measurement,setting,value
B1,glycan array binding signal (z-score),[1],-0.128
same,glycan array binding signal (z-score),[2],0.67
same,glycan array binding signal (z-score),[3],0.087
same,glycan array binding signal (z-score),Gal(b1-3)GlcNAc,0.263
same,glycan array binding signal (z-score),[4],0.257
same,glycan array binding signal (z-score),[5],-0.359
same,glycan array binding signal (z-score),Gal(b1-3)GlcNAc(b1-2)Man,0.542
same,glycan array binding signal (z-score),[6],0.001
same,glycan array binding signal (z-score),[7],-0.328
same,glycan array binding signal (z-score),[8],0.338
same,glycan array binding signal (z-score),[9],-0.439
same,glycan array binding signal (z-score),[10],-0.414
same,glycan array binding signal (z-score),[11],-0.175
same,glycan array binding signal (z-score),[12],-0.115
same,glycan array binding signal (z-score),[13],0.244
same,glycan array binding signal (z-score),[14],0.785
same,glycan array binding signal (z-score),[15],0.723
same,glycan array binding signal (z-score),[16],-0.158
same,glycan array binding signal (z-score),[17],-0.566
same,glycan array binding signal (z-score),[18],-0.65
same,glycan array binding signal (z-score),[19],-0.56
same,glycan array binding signal (z-score),[20],0.637
same,glycan array binding signal (z-score),[21],-0.455
same,glycan array binding signal (z-score),[22],0.344
same,glycan array binding signal (z-score),Gal(b1-3)GlcNAc6S,-0.23
same,glycan array binding signal (z-score),[23],-0.144
same,glycan array binding signal (z-score),[24],-0.443
same,glycan array binding signal (z-score),[25],0.571
same,glycan array binding signal (z-score),[26],-0.238
same,glycan array binding signal (z-score),[27],-0.212
same,glycan array binding signal (z-score),[28],0.377
same,glycan array binding signal (z-score),[29],-0.336
same,glycan array binding signal (z-score),[30],-0.334
same,glycan array binding signal (z-score),[31],-0.235
same,glycan array binding signal (z-score),[32],0.638
same,glycan array binding signal (z-score),Gal(b1-4)Gal,-0.38
same,glycan array binding signal (z-score),[33],-0.546
same,glycan array binding signal (z-score),[34],-0.358
